Data on 34 variants can be found in the RNAGym collection of RNA variant scans (doi:10.1093/nar/gkz1192).

B1: CPEB3 Ribozyme (parent)
chain: UAACAGGGGGCCACAGCAGAAGCGUUCACGUCGCAGCCCCUGUCAGAUUCUGGUGAAUCUGCGAAUUCUGCUGUAUAUCUC

The source gives no read counts; variants with many changes may rest on few reads.

In this series the parent is B1. As to the kind of experiment: self-cleavage, relative activity (ratio to wild type); higher = more cleavage; in vitro, sequencing. A digest of the protocol:
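After error-prone PCR and barcoding, CPEB3 ribozyme mutant libraries were transcribed with T7 RNA polymerase at 37°C for 5 hours, then given 15 min with DNase I before an EDTA stop, and they cleaved during both steps. Reverse transcription with template switching preceded Illumina sequencing. Relative activity divides a variant's cleaved/total read fraction by the unmutated ribozyme's. At least 5 reads were required per variant, and three batches were averaged.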
For UAACAGGGGGCCACAGCGGAAGCGUUCACGUCGCAGCCCCUGUCAGAUUCUGGAGAAUCUGCGGAUUCUGCUGUAUACCUC [A18G U54A A64G U78C], the self-cleavage was determined as 0.46.

As for UAACAGGGGGCCACAGCGGAAGCGUUCACGUCGCAGCCCCUGUCAGACUCUGGUGGAUCUGCGAAUUCCGCUGUAUAUCUC [A18G U48C A56G U69C], the self-cleavage is 0.49.

For UAACAGGGGGCCACAGCUGAUGCGUCCACGUCUCAGCCCCUGACAGAUUCUGGUGAAUCUGCGAAUUCUGCUGUAUAUCUC [A18U A21U U26C G33U U43A], the self-cleavage was 0.05.

For the variant UAACAGGGGGCCACAGCUGUAGCGUUCACGCCGCAGCCCCUGUCAGAUUCUGGUGAAUCUGCGAAUUCUGCUGUAUAUCUC [A18U A20U U31C], the self-cleavage is 0.21.

As to UAACAGGGGGCCACAGCGGAAGCGUUCACGUCGCAGCCCCUGUCAGAUACUGGUGAAUCUGCGAAUUCUGCUGUAUAUUUC [A18G U49A C79U], the self-cleavage is 0.62.

Consider UAACAGGGGGCCACAGCGGAAGCGUUCACGUCGCAGCCCCUGUCAGAUCCGGGUGAAUCUGCGAAUUCUGCUGUAUAACUC [A18G U49C U51G U78A], for which the self-cleavage was found to be 0.45.

Consider UAACAGGGGGCCACAGCGGAAGCGUUCACGUCGCAGCCCCUGUCAGAUUCUGGUGAAUCAGCGAAUUCUGCUGUAUAAAUC [A18G U60A U78A C79A], for which the self-cleavage turned out to be 0.53.

Take UAACAGGGGGCCACAGCUGAUGCGUUCGCGUCGCAGCCCCUGCCAGAUUCUGGUGAAUCUGAGAAUUCUGCUGUAUAUCUC [A18U A21U A28G U43C C62A]: the self-cleavage amounted to 0.1.

With UAACAGGGGGCCACAGCUGAGGCGCUCACGUCGCAGCCCCUGUCAGAUUCUGGUGAAUCUGCGAAUUCUGCUGUAUAUCUC [A18U A21G U25C], the self-cleavage turned out to be 0.21.

As to UAACAGGGGGCCACAGCGGAAGCGUUCACGUCGCAGCCCCUGUCAGAUUCCGGUGAAUCUGCGGAUUCUGCUGUACAUCUC [A18G U51C A64G U76C], the self-cleavage came to 0.29.

As to UAACAGGGGGCCACAGCGGAAGCGUUCACGUCGCAGCCCCUGUCAGAUUCUGGUGAAUCUGCGAAUCCUGCUGUAUACCUC [A18G U67C U78C], the self-cleavage is 0.17.

In the case of UAACAGGGGGCCACAGCUGGAGUGUUCACGUCGCAGCCCCUGUCAGAUUCUGGUGAACCUGCGAAUUCCGCUGUAUAUCUC [A18U A20G C23U U58C U69C], the self-cleavage is 0.04.

With UAACAGGGGGCCACAGCGGAAGCGUUCACGUCGCAGCCCCUGUCAGAUUCCGGUGAAUCUGCGAACUCUGCUGUAUACCUC [A18G U51C U66C U78C], the self-cleavage is 0.31.

Consider UAACAGGGGGCCACAGCUGGAACGUACACGUCGCAGCCCCCGUCAGACUCUGGUGAAUCUGCGAAUUCUGCUGUAUAUCUC [A18U A20G G22A U26A U41C U48C], for which the self-cleavage was determined as 0.06.

UAACAGGGGGCCACAGCGGAAGCGUUCACGUCGCAGCCCCUGUCAGAUUCCGGUGAAUCUGCGGAUUCUGCUGUAUAUCUC [A18G U51C A64G]: the self-cleavage turned out to be 0.34.

As to UAACAGGGGGCCACAGCUGAGGCGUUCACGUCGCAGCCCCUGACAGAUUCUGGUGAAUCAGCGAAUUCUGCUGUAUAUCUC [A18U A21G U43A U60A], the self-cleavage was determined as 0.1.

In the case of UAACAGGGGGCCACAGCUGGAGCGUACACGUCGCAGCCCCUGUCGGAUUCUGGCGAAUCUGCGAAUUCUGCUGGAUAUCUC [A18U A20G U26A A45G U54C U74G], the self-cleavage was determined as 0.07.

As to UAACAGGGGGCCACAGCGGAAGCGUUCACGUCGCAGCCCCUGUCAGACUCUGGUGAAUCUGCGAACUCUGCGGUAUAUCUC [A18G U48C U66C U72G], the self-cleavage was determined as 0.15.

Turning to UAACAGGGGGCCACAGCGGAAGCGUUCACGUCGCAGCCCCUGUCAGAUUCUGGUGAAUCUGCGAAUUCUGCCGUAUAUCAC [A18G U72C U80A], the self-cleavage came to 1.02.

As for UAACAGGGGGCCACAGCGGAAGCGUUCACGUCGCAGCCCCUGUCAGAUUCUGGAGAAUCUGCGAAUUCUGCUGUAUACCUC [A18G U54A U78C], the self-cleavage is 0.99.

With UAACAGGGGGCCACAGCGGAAGCGUUCACGUCGCAGCCCCUGUCAGAUUCUGGCGAAACUGCGAAUUCUGCUGUAUAUCUC [A18G U54C U58A], the self-cleavage is 0.17.

Take UAACAGGGGGCCACAGCGGAAGCGUUCACGUCGCAGCCCCUGUCAGAUUCUGGUGAAUCUGCGAAUUCUGCUGUAUAUCCU [A18G U80C C81U]: the self-cleavage stood at 1.2.

Consider UAACAGGGGGCCACAGCUGGAGCGUUCGCGUCGCAGCCCCUGCCAGAUUCUGGUGAAUCUGCGAAUUCUGCUGUACAUCUC [A18U A20G A28G U43C U76C], for which the self-cleavage is 0.04.

Take UAACAGGGGGCCACAGCUGGAGCGUUCACGUCGCAGCCCAUGUCAGGUUCUGGUGAGUCUGCGAAUUCUGCUGUAUAUCUC [A18U A20G C40A A47G A57G]: the self-cleavage is 0.05.

With UAACAGGGGGCCACAGCGGAAGCGUUCACGUCGCAGCCCCUGUCAGAUUCCGGUGAAUUUGCGAACUCCGCUGUAUAUCUC [A18G U51C C59U U66C U69C], the self-cleavage is 0.17.

As for UAACAGGGGGCCACAGCUGAAGCGUUCGCGUCGCGGCCCCUGUCAGAAUCUGGUGAAUCAGCGAGUUCUGCUGUAUAUCUC [A18U A28G A35G U48A U60A A65G], the self-cleavage is 0.07.

On to UAACAGGGGGCCACAGCUGAGGCGUUCACGUCGCAGCCCCUGUCAGAUUCUGGUGAAUCUGCGAAUUCUGAUGCAUAACUC [A18U A21G C71A U74C U78A], for which the self-cleavage worked out at 0.1.

Consider UAACAGGGGGCCACAGCGGAAGCGUUCACGUCGCAGCCCCUGUCAGAUUCAGGUGAAUCUGCGAAUUCUGCUGCAUAUCUC [A18G U51A U74C], for which the self-cleavage is 0.93.

With UAACAGGGGGCCACAGCGGAAGCGUUCACGUCGCAGCCCCUGUCAGAUUCUGGUGAAUCUGCGAAAUCUGCUGUAUACCUC [A18G U66A U78C], the self-cleavage was 0.39.

In the case of UAACAGGGGGCCACAGCUGGAGCGUUCACGUCGCAGCCCCUGUCAGAUCCUGGUGAAUCUGCGGAUUCUGCUGUAUAUCUC [A18U A20G U49C A64G], the self-cleavage stood at 0.18.

Consider UAACAGGGGGCCACAGCUGAAGCGUUCGCGUCGCAGCCCCUGUCAGAUUCUGGUGACUCUGCGAAUUCUGCUGUAUAUCUC [A18U A28G A57C], for which the self-cleavage came out at 0.23.

Take UAACAGGGGGCCACAGCUGAGGCGUUCACGUCGCAACCCUUGUCAGAUUCUGGUGAAUCUGCGAAUUCUGCUGUAUAUCUC [A18U A21G G36A C40U]: the self-cleavage was 0.21.

Turning to UAACAGGGGGCCACAGCUGAAGCGUUCGCGUCGCAGCCCCUGUCAGAUUCUGGUGUAUCUGCGAAUUCUGCUGUAUAUCUC [A18U A28G A56U], the self-cleavage was 0.16.

As for UAACAGGGGGCCACAGCUGUAGCGUUCACGUCGCAGCCCCCGUCAGAUUCUGGUGACUCUGCGAAUUCUGCUGUAUAUCUC [A18U A20U U41C A57C], the self-cleavage was 0.19.
